Read counts are not given, so values of variants with three or more changes are uncertain.

To fix the notation:
B1: LINE1-mini (parent)
chain: GGCAGAGCUCAACACAGCGUGGCAAAGUGGCUGUGGCUAGACUGCC

In the data set the parent is B1. The data set can be described thus: self-cleavage, relative activity (ratio to wild type); higher = more cleavage; in vitro, sequencing; the parent is a self-cleaving ribozyme.
G7U C10U A14U C23G A24G G27C U28A G33C: the self-cleavage turned out to be 0.

In the case of G7U C15A U28G, the self-cleavage came to 0.04.

On to G7U U9C A11G, for which the self-cleavage came to 0.01.

With G7U C10A U28A, the self-cleavage came to 0.02.

In the case of G7U G22A U28C G29C C31U G36A, the self-cleavage was determined as 0.03.

For G7U C10U A11U C23A U34C C37A, the self-cleavage is 0.01.

Turning to C8A A12U A25U C42G, the self-cleavage was 0.05.

Take G7U C8G G21A A39C C42G: the self-cleavage was determined as 0.22.

Regarding G7U G22A G27A U43G, the self-cleavage is 0.03.

For the variant G7U G17A G22U G27U G29C C46A, the self-cleavage was found to be 0.07.

With G7U C15U C23G, the self-cleavage was determined as 0.06.

Regarding G7U C31U U34G C45A, the self-cleavage came out at 0.01.

Consider G7U C8A G22A C46G, for which the self-cleavage is 0.88.

G7U U28C G29U C31A U34A: the self-cleavage amounted to 0.03.

G7U A39U G44U: the self-cleavage came out at 0.21.

On to G7U G21U G36U C37G A41G C45U, for which the self-cleavage was determined as 0.01.

Take G7U G40A A41C C45U: the self-cleavage was determined as 0.04.

As for C8A A11C C15U A16C A26U G33U, the self-cleavage worked out at 0.02.

With G7U C10U A16G G22A, the self-cleavage is 0.01.

As for G7U G17A U20A, the self-cleavage is 0.01.

As to G7U G17U C42U, the self-cleavage came to 0.08.

As for G7U C10U A12U A16G G19A U20A, the self-cleavage was found to be 0.02.

Consider G7U C31A U34A G36U, for which the self-cleavage is 0.01.

Turning to G7U C8U A11U G33U, the self-cleavage amounted to 0.03.

Take G7U U9C C15A G29C: the self-cleavage stood at 0.02.

In the case of G7U U9A A11U, the self-cleavage was determined as 0.06.

As for C8A A11G G33U G40U A41C, the self-cleavage stood at 0.02.

G7U C23U A25C G27A C37G: the self-cleavage was found to be 0.

With G7U C10G C13A A25C, the self-cleavage came to 0.02.

For G7U G21U U32G, the self-cleavage worked out at 0.19.

As for C8A A12G G22A C23G A26U, the self-cleavage came out at 0.05.

As to C8A A14C U20G, the self-cleavage stood at 0.05.

Regarding C8A A11U A12C G29A G30U, the self-cleavage was 0.01.

As to C8A A12C G21A G30C U32G, the self-cleavage came out at 0.03.

As for G7U C15U G21A A39C U43C, the self-cleavage stood at 0.19.

As for G7U C10U C18A G33U, the self-cleavage was 0.03.

G7U G33A U34G G40C: the self-cleavage came to 0.13.

Consider G7U U9G G22U G29C, for which the self-cleavage amounted to 0.03.

For the variant G7U G22C A24G U34G, the self-cleavage stood at 0.05.

As for C8A A12C C13G U28C G36U, the self-cleavage came out at 0.05.

G7U G22A G35U A41C: the self-cleavage was 0.12.

On to G7U U9C A11U C45U, for which the self-cleavage stood at 0.

With C8A A14U C18A G21C A25U G35U, the self-cleavage amounted to 0.06.

For the variant C8A A12U G22C, the self-cleavage came to 0.05.

For the variant G7U C13A G30A U43A G44C, the self-cleavage came to 0.14.

Consider G7U C8A C45A C46U, for which the self-cleavage is 0.47.

Regarding G7U U28A G35A U38C, the self-cleavage was found to be 0.02.

G7U C10A C15A G19C G27U G30U: the self-cleavage came out at 0.01.

On to G7U C13A G21A G22C A41G, for which the self-cleavage was 0.03.

As for G7U U9A C18U A26C G30C, the self-cleavage came to 0.17.

For G7U G19U U28G G30U C37A, the self-cleavage amounted to 0.02.

For the variant G7U G22U G33U, the self-cleavage stood at 0.14.

On to G7U C18A U38A U43C, for which the self-cleavage is 0.03.

Consider G7U C13A A26C, for which the self-cleavage worked out at 0.08.

As to G7U G27A U38G, the self-cleavage is 0.01.

With G7U G22U C23U C46A, the self-cleavage turned out to be 0.04.

With G7U C31A U43C, the self-cleavage stood at 0.44.

For G7U G27A G40A, the self-cleavage amounted to 0.12.

For G7U C8U U9A, the self-cleavage was determined as 0.34.

Turning to G7U C10G C13U, the self-cleavage amounted to 0.03.

Turning to G7U U9G A24C U28G U34A A39C C46A, the self-cleavage worked out at 0.02.

With G7U C8G A16U C18U G40U, the self-cleavage was 0.04.

Take G7U A26U G36C G44U: the self-cleavage is 0.06.

With G7U G22C A26U G30A G35C G40U C45G, the self-cleavage was 0.

G7U G35A C37A: the self-cleavage stood at 0.04.

For G7U C8U U34G C45U, the self-cleavage is 0.21.

Turning to G7U C15U U20G, the self-cleavage was found to be 0.07.

Consider G7U G17C C18U, for which the self-cleavage stood at 0.25.

For G7U C8U C10U A16G C31U U32G, the self-cleavage came to 0.04.

As for G7U C15A C23G U34A C37U C45U, the self-cleavage was 0.02.

Take G7U C10U C23A: the self-cleavage came to 0.03.

Regarding C8A A14U G22A G27U, the self-cleavage came out at 0.13.

With G7U G22C G35U A41C, the self-cleavage amounted to 0.12.

As for G7U G19A C42G, the self-cleavage turned out to be 0.01.

Take G7U U20G G21C: the self-cleavage came to 0.27.

As to G7U C13G G17A U20A, the self-cleavage came out at 0.15.

Turning to G7U U9A C13G C46A, the self-cleavage was determined as 0.14.

G7U C8U C23A G27A: the self-cleavage was found to be 0.4.

Turning to G7U G22U A25C, the self-cleavage is 0.06.

G7U G19U G29U G30U: the self-cleavage was found to be 0.75.

With G7U G17C A26C C45A, the self-cleavage is 0.

Take G7U U9G A24C A26U: the self-cleavage was 0.01.

As to C8A A14U G19C G30C G35C G40A, the self-cleavage was determined as 0.25.

Consider C8A A11U C37G A41G, for which the self-cleavage was found to be 0.01.

Turning to G7U G33U G40U A41U, the self-cleavage was 0.05.

On to G7U U9G G21A C23G A24C A26U G30C U34C, for which the self-cleavage was 0.02.

On to G7U G40C C42U, for which the self-cleavage amounted to 0.03.

G7U A26C U43G C46A: the self-cleavage is 0.07.

Regarding G7U C10U G17A, the self-cleavage was determined as 0.04.

G7U A26G G27A U28G: the self-cleavage came out at 0.

Turning to C8A A14C G19A U34C G40A, the self-cleavage was found to be 0.03.

With G7U G21A U28C, the self-cleavage is 0.06.

On to G7U G19U C42A, for which the self-cleavage worked out at 0.02.

In the case of G7U G29U G35U, the self-cleavage is 0.05.

Take G7U C10A G27U G29C: the self-cleavage is 0.01.

In the case of G7U U9C G21C C31U, the self-cleavage was 0.03.

For the variant G7U C8G A14U A16G G33C A41U, the self-cleavage came to 0.12.

Take G7U G19U U20C: the self-cleavage worked out at 0.08.

Regarding C8A A14C C31U U32G, the self-cleavage stood at 0.06.

On to C8A A12U G17U G36A, for which the self-cleavage is 0.04.

For G7U C13G G33A G40U, the self-cleavage was found to be 0.21.

G7U C10U G19A: the self-cleavage was determined as 0.02.

For the variant C8A A11G U20A C31U, the self-cleavage came to 0.01.

For the variant G7U C10A A16C, the self-cleavage worked out at 0.02.

As to G7U U9A U32C G44C, the self-cleavage is 0.05.

For the variant G7U G29U G35C C46A, the self-cleavage turned out to be 0.04.

For G7U C18U G30A, the self-cleavage worked out at 0.08.

Turning to G7U G33U G35A A39G, the self-cleavage is 0.39.

On to G7U C15U C18A C37A U43C, for which the self-cleavage is 0.08.

C8A A11U A16C A39G C45U: the self-cleavage was determined as 0.02.

With G7U G30C G35U C46G, the self-cleavage stood at 0.02.

Turning to G7U U32G A39C, the self-cleavage came out at 0.13.

G7U G35A G36A C42G G44U: the self-cleavage worked out at 0.05.

In the case of C8A A14G A39C, the self-cleavage came to 0.13.

For the variant G7U C13A A14G, the self-cleavage was found to be 0.08.

Take G7U C8G G17U C46G: the self-cleavage is 0.05.

Turning to G7U C8A G17A G21U G36U G40U, the self-cleavage was determined as 0.06.

Take C8A A11G G21U A39U: the self-cleavage was determined as 0.01.

As to G7U C8G C10G A26C C31G, the self-cleavage amounted to 0.02.

For G7U U32A G36A, the self-cleavage stood at 0.05.

Regarding G7U G21A C37U, the self-cleavage came out at 0.1.

Regarding G7U C8A G29C A41G, the self-cleavage was 0.21.

On to G7U C8G A14U A26U U43A, for which the self-cleavage was 0.16.

Take G7U G19U G36U: the self-cleavage was 0.04.

In the case of G7U G19U G36C, the self-cleavage was 0.08.

Take G7U C15U U43C: the self-cleavage worked out at 0.09.

Turning to G7U C8A C13A C42G C46U, the self-cleavage is 0.91.

On to G7U G22C G35U G36U, for which the self-cleavage was determined as 0.11.

Take G7U C8G A11U G22U C37A C46U: the self-cleavage was 0.01.

As to G7U U9C U20A, the self-cleavage was 0.01.

Turning to G7U G21U C46G, the self-cleavage stood at 0.03.

With G7U G19U U32C, the self-cleavage stood at 0.01.

Take G7U G22C U32G: the self-cleavage turned out to be 0.19.

With G7U G19A G40A, the self-cleavage was determined as 0.61.

Consider G7U C15A G22U A41G, for which the self-cleavage was determined as 0.36.

For G7U C31A G35A G44U, the self-cleavage came to 0.06.

With G7U U38C G44A, the self-cleavage was 0.19.

Turning to G7U G17U G33A G36A, the self-cleavage was 0.03.

For the variant G7U U9C C46U, the self-cleavage is 0.03.

For the variant C8A A14U G19C G29U C31A, the self-cleavage came out at 0.07.

As for G7U G22A C46A, the self-cleavage is 0.1.

On to G7U C15A G17C, for which the self-cleavage turned out to be 0.09.

Consider C8A A11C U28A G33A A39G, for which the self-cleavage worked out at 0.02.

Regarding G7U C23U G35C U38C, the self-cleavage is 0.04.

G7U C13U A25G: the self-cleavage stood at 0.12.

Turning to G7U C13U G27U G33C C37U, the self-cleavage came to 0.02.

Take G7U C15A G27U: the self-cleavage is 0.

On to G7U C15U G30A, for which the self-cleavage amounted to 0.18.

G7U G30U G40C: the self-cleavage worked out at 0.15.

As for G7U G22A A26G G30C G40A, the self-cleavage was 0.15.

For G7U G29C U38G G44A, the self-cleavage was 0.01.

In the case of G7U G33C G40U, the self-cleavage is 0.02.

For G7U G21C G27U, the self-cleavage was found to be 0.02.

Turning to G7U C8A G17C A25G C46A, the self-cleavage was found to be 0.11.

As for C8A A11C G35A, the self-cleavage was 0.01.

For G7U C10G G35C C45U, the self-cleavage was 0.03.

G7U C15G A16U C18U G29U: the self-cleavage is 0.06.

Take C8A A11G G36C: the self-cleavage is 0.

Regarding G7U C10A G33U U34A, the self-cleavage is 0.03.

For the variant G7U G22U A24G, the self-cleavage was 0.07.

As for G7U G19A G21U C37U, the self-cleavage amounted to 0.01.

As for G7U U32A A39U G44A, the self-cleavage was 0.23.

As for G7U G30C C31U G40A C42G, the self-cleavage came to 0.19.

Take G7U U20C G33C: the self-cleavage stood at 0.09.

On to G7U C15U G44C, for which the self-cleavage came to 0.23.

As for G7U G17U G35C, the self-cleavage was determined as 0.08.

C8A A11U U20C C37G: the self-cleavage is 0.01.

These data come from the RNAGym collection of RNA variant scans (doi:10.7554/elife.90254).
